# Data: the supplement of paper PMC8728848
# The list shows a part of the results.
# B1: MpL2 (Macrolepiota procera) (protein)
# chain: MSTQVSSGQTYKITNVKAGTVIRLSGEDNKSIIGYPYHSGKNQQWTFNWTGKAWTLRSASSGSYLGIEGTPADGTRLVAVNDPFEWHIWRDEANENAFRIFVPFTNYNLDLSGYGDTTPGTPVQLWWTWEGLHQTWTIDRP
# Assays:
# Experiment in all cases: glycan array binding signal (z-score within array); higher = stronger binding
# Settings in all cases: glycan notation: IUPAC condensed, linker removed; mutation: D22R
# [1] = target: Neu5Ac(a2-3)Gal6S(b1-4)[Fuc(a1-3)]GlcNAc
# Procedure, shortened: (§1)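 Negative Z-scores can be read as non-binding. The Z-score is calculated within each array and then averaged across arrays of one protein sequence at different concentrations or buffers and across linkers. Arrays, 3228 in all, were curated from the Consortium for Functional Glycomics database and kept only where the protein sequence was available.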
# Neu5Ac(a2-3)GalNAc = target: Neu5Ac(a2-3)GalNAc
# Procedure, shortened: as §1
# [2] = target: Neu5Ac(a2-3)GalNAc(b1-4)GlcNAc
# Procedure, shortened: as §1
# [3] = target: Neu5Ac(a2-3)[GalNAc(b1-4)]Gal(b1-4)Glc
# Procedure, shortened: as §1
# [4] = target: Neu5Ac(a2-3)[GalNAc(b1-4)]Gal(b1-4)GlcNAc
# Procedure, shortened: as §1
# [5] = target: Neu5Ac(a2-3)[GalNAc(b1-4)]Gal(b1-4)GlcNAc(b1-3)GalNAc
# Procedure, shortened: as §1
# [6] = target: Neu5Ac(a2-3)[Neu5Ac(a2-6)]GalNAc
# Procedure, shortened: as §1
# Neu5Ac(a2-6)Gal = target: Neu5Ac(a2-6)Gal
# Procedure, shortened: as §1
# [7] = target: Neu5Ac(a2-6)Gal(b1-3)GlcNAc(b1-3)[Gal(b1-4)GlcNAc(b1-6)]Gal(b1-4)Glc
# Procedure, shortened: as §1
# Neu5Ac(a2-6)Gal(b1-4)Glc = target: Neu5Ac(a2-6)Gal(b1-4)Glc
# Procedure, shortened: as §1
# [8] = target: Neu5Ac(a2-6)Gal(b1-4)GlcNAc
# Procedure, shortened: as §1
# [9] = target: Neu5Ac(a2-6)Gal(b1-4)GlcNAc(b1-2)Man
# Procedure, shortened: as §1
# [10] = target: Neu5Ac(a2-6)Gal(b1-4)GlcNAc(b1-2)Man(a1-3)Man(b1-4)GlcNAc(b1-4)GlcNAc
# Procedure, shortened: as §1
# [11] = target: Neu5Ac(a2-6)Gal(b1-4)GlcNAc(b1-2)Man(a1-3)[Gal(b1-4)GlcNAc(b1-2)Man(a1-6)]Man(b1-4)GlcNAc(b1-4)GlcNAc
# Procedure, shortened: as §1
# [12] = target: Neu5Ac(a2-6)Gal(b1-4)GlcNAc(b1-2)Man(a1-3)[GlcNAc(b1-2)Man(a1-6)]Man(b1-4)GlcNAc(b1-4)GlcNAc
# Procedure, shortened: as §1
# [13] = target: Neu5Ac(a2-6)Gal(b1-4)GlcNAc(b1-2)Man(a1-3)[GlcNAc(b1-4)][Neu5Ac(a2-6)Gal(b1-4)GlcNAc(b1-2)Man(a1-6)]Man(b1-4)GlcNAc(b1-4)GlcNAc
# Procedure, shortened: as §1
# [14] = target: Neu5Ac(a2-6)Gal(b1-4)GlcNAc(b1-2)Man(a1-3)[Man(a1-6)]Man(b1-4)GlcNAc(b1-4)GlcNAc
# Procedure, shortened: as §1
# [15] = target: Neu5Ac(a2-6)Gal(b1-4)GlcNAc(b1-2)Man(a1-3)[Neu5Ac(a2-3)Gal(b1-4)GlcNAc(b1-2)Man(a1-6)]Man(b1-4)GlcNAc(b1-4)GlcNAc
# Procedure, shortened: as §1
# [16] = target: Neu5Ac(a2-6)Gal(b1-4)GlcNAc(b1-2)Man(a1-3)[Neu5Ac(a2-6)Gal(b1-4)GlcNAc(b1-2)Man(a1-6)]Man(b1-4)GlcNAc(b1-4)GlcNAc
# Procedure, shortened: as §1
# [17] = target: Neu5Ac(a2-6)Gal(b1-4)GlcNAc(b1-2)Man(a1-3)[Neu5Ac(a2-6)Gal(b1-4)GlcNAc(b1-2)Man(a1-6)]Man(b1-4)GlcNAc(b1-4)[Fuc(a1-6)]GlcNAc
# Procedure, shortened: as §1
# [18] = target: Neu5Ac(a2-6)Gal(b1-4)GlcNAc(b1-2)Man(a1-6)Man(b1-4)GlcNAc(b1-4)GlcNAc
# Procedure, shortened: as §1
# [19] = target: Neu5Ac(a2-6)Gal(b1-4)GlcNAc(b1-2)Man(a1-6)[Gal(b1-4)GlcNAc(b1-2)Man(a1-3)]Man(b1-4)GlcNAc(b1-4)GlcNAc
# Procedure, shortened: as §1
# [20] = target: Neu5Ac(a2-6)Gal(b1-4)GlcNAc(b1-2)Man(a1-6)[GlcNAc(b1-2)Man(a1-3)]Man(b1-4)GlcNAc(b1-4)GlcNAc
# Procedure, shortened: as §1
# [21] = target: Neu5Ac(a2-6)Gal(b1-4)GlcNAc(b1-2)Man(a1-6)[Man(a1-3)]Man(b1-4)GlcNAc(b1-4)GlcNAc
# Procedure, shortened: as §1
# [22] = target: Neu5Ac(a2-6)Gal(b1-4)GlcNAc(b1-2)[Neu5Ac(a2-6)Gal(b1-4)GlcNAc(b1-4)]Man(a1-3)[GlcNAc(b1-4)][Neu5Ac(a2-6)Gal(b1-4)GlcNAc(b1-2)[Neu5Ac(a2-6)Gal(b1-4)GlcNAc(b1-6)]Man(a1-6)]Man(b1-4)GlcNAc(b1-4)GlcNAc
# Procedure, shortened: as §1
# [23] = target: Neu5Ac(a2-6)Gal(b1-4)GlcNAc(b1-2)[Neu5Ac(a2-6)Gal(b1-4)GlcNAc(b1-4)]Man(a1-3)[GlcNAc(b1-4)][Neu5Ac(a2-6)Gal(b1-4)GlcNAc(b1-4)Man(a1-6)]Man(b1-4)GlcNAc(b1-4)GlcNAc
# Procedure, shortened: as §1
# [24] = target: Neu5Ac(a2-6)Gal(b1-4)GlcNAc(b1-2)[Neu5Ac(a2-6)Gal(b1-4)GlcNAc(b1-6)]Man(a1-6)[Neu5Ac(a2-6)Gal(b1-4)GlcNAc(b1-2)Man(a1-3)][GlcNAc(b1-4)]Man(b1-4)GlcNAc(b1-4)GlcNAc
# Procedure, shortened: as §1
# [25] = target: Neu5Ac(a2-6)Gal(b1-4)GlcNAc(b1-3)Gal(b1-3)GlcNAc
# Procedure, shortened: as §1
# [26] = target: Neu5Ac(a2-6)Gal(b1-4)GlcNAc(b1-3)Gal(b1-4)GlcNAc
# Procedure, shortened: as §1
# [27] = target: Neu5Ac(a2-6)Gal(b1-4)GlcNAc(b1-3)Gal(b1-4)GlcNAc(b1-2)Man(a1-3)[Neu5Ac(a2-6)Gal(b1-4)GlcNAc(b1-3)Gal(b1-4)GlcNAc(b1-2)Man(a1-6)]GalNAc
# Procedure, shortened: as §1
# [28] = target: Neu5Ac(a2-6)Gal(b1-4)GlcNAc(b1-3)Gal(b1-4)GlcNAc(b1-3)Gal(b1-4)GlcNAc
# Procedure, shortened: as §1
# [29] = target: Neu5Ac(a2-6)Gal(b1-4)GlcNAc(b1-3)Gal(b1-4)GlcNAc(b1-3)Gal(b1-4)GlcNAc(b1-2)Man(a1-3)[Neu5Ac(a2-6)Gal(b1-4)GlcNAc(b1-3)Gal(b1-4)GlcNAc(b1-3)Gal(b1-4)GlcNAc(b1-2)Man(a1-6)]GalNAc
# Procedure, shortened: as §1
# [30] = target: Neu5Ac(a2-6)Gal(b1-4)GlcNAc(b1-3)Gal(b1-4)GlcNAc(b1-3)GalNAc
# Procedure, shortened: as §1
# [31] = target: Neu5Ac(a2-6)Gal(b1-4)GlcNAc(b1-3)Gal(b1-4)GlcNAc(b1-3)[Neu5Ac(a2-6)Gal(b1-4)GlcNAc(b1-3)Gal(b1-4)GlcNAc(b1-6)]GalNAc
# Procedure, shortened: as §1
# [32] = target: Neu5Ac(a2-6)Gal(b1-4)GlcNAc(b1-3)Gal(b1-4)GlcNAc(b1-6)[Gal(b1-3)]GalNAc
# Procedure, shortened: as §1
# [33] = target: Neu5Ac(a2-6)Gal(b1-4)GlcNAc(b1-3)Gal(b1-4)[Fuc(a1-3)]GlcNAc(b1-3)Gal(b1-4)[Fuc(a1-3)]GlcNAc
# Procedure, shortened: as §1
# [34] = target: Neu5Ac(a2-6)Gal(b1-4)GlcNAc(b1-3)GalNAc
# Procedure, shortened: as §1
# [35] = target: Neu5Ac(a2-6)Gal(b1-4)GlcNAc(b1-3)[Neu5Ac(a2-6)Gal(b1-4)GlcNAc(b1-6)]GalNAc
# Procedure, shortened: as §1
# [36] = target: Neu5Ac(a2-6)Gal(b1-4)GlcNAc(b1-6)GalNAc
# Procedure, shortened: as §1
# [37] = target: Neu5Ac(a2-6)Gal(b1-4)GlcNAc(b1-6)[Gal(b1-3)GlcNAc(b1-3)]Gal(b1-4)Glc
# Procedure, shortened: as §1
# [38] = target: Neu5Ac(a2-6)Gal(b1-4)GlcNAc(b1-6)[Gal(b1-3)]GalNAc
# Procedure, shortened: as §1
# [39] = target: Neu5Ac(a2-6)Gal(b1-4)GlcNAc6S
# Procedure, shortened: as §1
# Neu5Ac(a2-6)GalNAc = target: Neu5Ac(a2-6)GalNAc
# Procedure, shortened: as §1
# [40] = target: Neu5Ac(a2-6)GalNAc(b1-4)GlcNAc
# Procedure, shortened: as §1
# [41] = target: Neu5Ac(a2-6)GalNAc(b1-4)GlcNAc6S
# Procedure, shortened: as §1
binder,measurement,setting,value
B1,glycan array binding signal (z-score),[1],-0.637
same,glycan array binding signal (z-score),Neu5Ac(a2-3)GalNAc,-0.524
same,glycan array binding signal (z-score),[2],-0.201
same,glycan array binding signal (z-score),[3],0.07
same,glycan array binding signal (z-score),[4],-0.422
same,glycan array binding signal (z-score),[5],1.32
same,glycan array binding signal (z-score),[6],-0.364
same,glycan array binding signal (z-score),Neu5Ac(a2-6)Gal,0.467
same,glycan array binding signal (z-score),[7],-0.986
same,glycan array binding signal (z-score),Neu5Ac(a2-6)Gal(b1-4)Glc,-0.303
same,glycan array binding signal (z-score),[8],-0.396
same,glycan array binding signal (z-score),[9],-0.185
same,glycan array binding signal (z-score),[10],0.019
same,glycan array binding signal (z-score),[11],-0.214
same,glycan array binding signal (z-score),[12],-0.302
same,glycan array binding signal (z-score),[13],-0.361
same,glycan array binding signal (z-score),[14],0.099
same,glycan array binding signal (z-score),[15],-0.117
same,glycan array binding signal (z-score),[16],-0.119
same,glycan array binding signal (z-score),[17],-0.123
same,glycan array binding signal (z-score),[18],0.141
same,glycan array binding signal (z-score),[19],-0.819
same,glycan array binding signal (z-score),[20],-0.238
same,glycan array binding signal (z-score),[21],0.217
same,glycan array binding signal (z-score),[22],-0.644
same,glycan array binding signal (z-score),[23],-0.393
same,glycan array binding signal (z-score),[24],-0.457
same,glycan array binding signal (z-score),[25],0.558
same,glycan array binding signal (z-score),[26],-0.623
same,glycan array binding signal (z-score),[27],0.451
same,glycan array binding signal (z-score),[28],-0.201
same,glycan array binding signal (z-score),[29],2.64
same,glycan array binding signal (z-score),[30],-0.401
same,glycan array binding signal (z-score),[31],2.97
same,glycan array binding signal (z-score),[32],0.273
same,glycan array binding signal (z-score),[33],-0.04
same,glycan array binding signal (z-score),[34],-0.516
same,glycan array binding signal (z-score),[35],-0.455
same,glycan array binding signal (z-score),[36],0.51
same,glycan array binding signal (z-score),[37],-0.111
same,glycan array binding signal (z-score),[38],-0.069
same,glycan array binding signal (z-score),[39],-0.328
same,glycan array binding signal (z-score),Neu5Ac(a2-6)GalNAc,-0.42
same,glycan array binding signal (z-score),[40],-0.28
same,glycan array binding signal (z-score),[41],-0.281
